# Results taken from the supplement of paper PMC8728848.
# The list shows a part of the results.
# B1: PpFlo2 (Pichia pastoris) (protein)
# chain: MGSSHHHHHHSSGLVPRGSHMDDSGNGDNSDTAYGCDITTNAVDGFDATIYQYNANDLRLIRDPTFMSTGYLGRNVLNKISGVTVPGFNIWNPSSRTATVYGVKNVNYYNMVLELKGYFKADVSGDYKLTLSHIDDSSMLFFGKETAFKCCDAGSIPLNEAPTDYSLFTIKPSNQVNSEVISATQYLEAGKYYPVRIVFVNALERARFDFKLTIPSGAVLDDFQNYIYQFGDLDENSCHE
# What was measured:
# Test in all cases: glycan array binding signal (z-score within array); higher = stronger binding
# Conditions in all cases: glycan notation: IUPAC condensed, linker removed
# [1] = molecular target: Glc(a1-6)Glc(a1-6)Glc
# Method in brief: (§1)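 Columns mapping to the same glycan were averaged after glycan names were converted to IUPAC-condensed notation. The data come from 3228 arrays in the Consortium for Functional Glycomics database, limited to those with an available protein sequence. Binding is reported as a within-array Z-score averaged across arrays of one protein sequence and across linkers.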
# [2] = molecular target: Glc(a1-6)Glc(a1-6)Glc(a1-6)Glc
# Method in brief: as §1
# [3] = molecular target: Glc(b1-4)Glc
# Method in brief: as §1
# [4] = molecular target: Glc(b1-6)Glc
# Method in brief: as §1
# [5] = molecular target: GlcA(b1-3)Gal
# Method in brief: as §1
# [6] = molecular target: GlcA(b1-3)GlcNAc
# Method in brief: as §1
# [7] = molecular target: GlcA(b1-6)Gal
# Method in brief: as §1
# [8] = molecular target: GlcA3S(b1-3)Gal(b1-4)GlcNAc(b1-2)Man
# Method in brief: as §1
# [9] = molecular target: GlcA3S(b1-3)Gal(b1-4)GlcNAc(b1-3)Gal(b1-4)Glc
# Method in brief: as §1
# [10] = molecular target: GlcNAc(a1-3)Gal(b1-4)GlcNAc
# Method in brief: as §1
# [11] = molecular target: GlcNAc(a1-4)Gal(b1-3)GlcNAc
# Method in brief: as §1
# [12] = molecular target: GlcNAc(a1-4)Gal(b1-4)GalNAc
# Method in brief: as §1
# [13] = molecular target: GlcNAc(a1-4)Gal(b1-4)GlcNAc
# Method in brief: as §1
# [14] = molecular target: GlcNAc(a1-4)Gal(b1-4)GlcNAc(b1-3)Gal(b1-4)Glc
# Method in brief: as §1
# [15] = molecular target: GlcNAc(a1-4)Gal(b1-4)GlcNAc(b1-3)Gal(b1-4)GlcNAc
# Method in brief: as §1
# [16] = molecular target: GlcNAc(a1-4)Gal(b1-4)GlcNAc(b1-3)Gal(b1-4)GlcNAc(b1-3)Gal(b1-4)GlcNAc
# Method in brief: as §1
# [17] = molecular target: GlcNAc(a1-4)Gal(b1-4)GlcNAc(b1-3)Gal(b1-4)[Fuc(a1-3)]GlcNAc(b1-3)Gal(b1-4)[Fuc(a1-3)]GlcNAc
# Method in brief: as §1
# [18] = molecular target: GlcNAc(a1-6)Gal(b1-4)GlcNAc
# Method in brief: as §1
# [19] = molecular target: GlcNAc(b1-2)Gal(b1-3)GalNAc
# Method in brief: as §1
# [20] = molecular target: GlcNAc(b1-2)Man(a1-3)[GlcNAc(b1-2)Man(a1-6)]Man(b1-4)GlcNAc(b1-4)GlcNAc
# Method in brief: as §1
# [21] = molecular target: GlcNAc(b1-2)Man(a1-3)[GlcNAc(b1-2)Man(a1-6)]Man(b1-4)GlcNAc(b1-4)[Fuc(a1-6)]GlcNAc
# Method in brief: as §1
# [22] = molecular target: GlcNAc(b1-2)Man(a1-3)[GlcNAc(b1-4)][GlcNAc(b1-2)Man(a1-6)]Man(b1-4)GlcNAc(b1-4)GlcNAc
# Method in brief: as §1
# [23] = molecular target: GlcNAc(b1-2)Man(a1-3)[GlcNAc(b1-4)][GlcNAc(b1-2)Man(a1-6)]Man(b1-4)GlcNAc(b1-4)[Fuc(a1-6)]GlcNAc
# Method in brief: as §1
# [24] = molecular target: GlcNAc(b1-2)[GlcNAc(b1-4)]Man(a1-3)[GlcNAc(b1-2)Man(a1-6)]Man(b1-4)GlcNAc(b1-4)GlcNAc
# Method in brief: as §1
# [25] = molecular target: GlcNAc(b1-2)[GlcNAc(b1-4)]Man(a1-3)[GlcNAc(b1-4)][GlcNAc(b1-2)Man(a1-6)]Man(b1-4)GlcNAc(b1-4)GlcNAc
# Method in brief: as §1
# [26] = molecular target: GlcNAc(b1-2)[GlcNAc(b1-4)]Man(a1-3)[GlcNAc(b1-4)][GlcNAc(b1-2)[GlcNAc(b1-6)]Man(a1-6)]Man(b1-4)GlcNAc(b1-4)GlcNAc
# Method in brief: as §1
# [27] = molecular target: GlcNAc(b1-2)[GlcNAc(b1-4)]Man(a1-3)[GlcNAc(b1-4)][GlcNAc(b1-2)[GlcNAc(b1-6)]Man(a1-6)]Man(b1-4)GlcNAc(b1-4)[Fuc(a1-6)]GlcNAc
# Method in brief: as §1
# [28] = molecular target: GlcNAc(b1-2)[GlcNAc(b1-6)]Man(a1-6)[GlcNAc(b1-2)Man(a1-3)]Man(b1-4)GlcNAc(b1-4)GlcNAc
# Method in brief: as §1
# [29] = molecular target: GlcNAc(b1-2)[GlcNAc(b1-6)]Man(a1-6)[GlcNAc(b1-2)Man(a1-3)]Man(b1-4)GlcNAc(b1-4)[Fuc(a1-6)]GlcNAc
# Method in brief: as §1
# [30] = molecular target: GlcNAc(b1-2)[GlcNAc(b1-6)]Man(a1-6)[GlcNAc(b1-2)Man(a1-3)][GlcNAc(b1-4)]Man(b1-4)GlcNAc(b1-4)GlcNAc
# Method in brief: as §1
# [31] = molecular target: GlcNAc(b1-2)[GlcNAc(b1-6)]Man(a1-6)[GlcNAc(b1-4)][GlcNAc(b1-2)Man(a1-3)]Man(b1-4)GlcNAc(b1-4)GlcNAc
# Method in brief: as §1
# [32] = molecular target: GlcNAc(b1-3)Fuc
# Method in brief: as §1
# [33] = molecular target: GlcNAc(b1-3)Gal
# Method in brief: as §1
# [34] = molecular target: GlcNAc(b1-3)Gal(b1-3)GalNAc
# Method in brief: as §1
# [35] = molecular target: GlcNAc(b1-3)Gal(b1-4)Glc
# Method in brief: as §1
# [36] = molecular target: GlcNAc(b1-3)Gal(b1-4)GlcNAc
# Method in brief: as §1
# [37] = molecular target: GlcNAc(b1-3)Gal(b1-4)GlcNAc(b1-2)Man(a1-3)[GlcNAc(b1-3)Gal(b1-4)GlcNAc(b1-2)Man(a1-6)]Man(b1-4)GlcNAc(b1-4)GlcNAc
# Method in brief: as §1
binder,measurement,setting,value
B1,glycan array binding signal (z-score),[1],-0.299
same,glycan array binding signal (z-score),[2],-0.303
same,glycan array binding signal (z-score),[3],-0.296
same,glycan array binding signal (z-score),[4],-0.3
same,glycan array binding signal (z-score),[5],-0.3
same,glycan array binding signal (z-score),[6],-0.254
same,glycan array binding signal (z-score),[7],-0.297
same,glycan array binding signal (z-score),[8],-0.271
same,glycan array binding signal (z-score),[9],-0.272
same,glycan array binding signal (z-score),[10],2
same,glycan array binding signal (z-score),[11],-0.269
same,glycan array binding signal (z-score),[12],-0.288
same,glycan array binding signal (z-score),[13],-0.258
same,glycan array binding signal (z-score),[14],-0.247
same,glycan array binding signal (z-score),[15],-0.209
same,glycan array binding signal (z-score),[16],-0.203
same,glycan array binding signal (z-score),[17],-0.213
same,glycan array binding signal (z-score),[18],0.182
same,glycan array binding signal (z-score),[19],-0.079
same,glycan array binding signal (z-score),[20],3.88
same,glycan array binding signal (z-score),[21],1.5
same,glycan array binding signal (z-score),[22],1.72
same,glycan array binding signal (z-score),[23],0.447
same,glycan array binding signal (z-score),[24],2.46
same,glycan array binding signal (z-score),[25],1.17
same,glycan array binding signal (z-score),[26],0.675
same,glycan array binding signal (z-score),[27],-0.108
same,glycan array binding signal (z-score),[28],2.81
same,glycan array binding signal (z-score),[29],2.24
same,glycan array binding signal (z-score),[30],2.19
same,glycan array binding signal (z-score),[31],-0.024
same,glycan array binding signal (z-score),[32],0.04
same,glycan array binding signal (z-score),[33],1.09
same,glycan array binding signal (z-score),[34],2.32
same,glycan array binding signal (z-score),[35],1.83
same,glycan array binding signal (z-score),[36],2.79
same,glycan array binding signal (z-score),[37],4.64
